# Laboratory results taken from the supplement of paper PMC4166925.
# ± gives the standard deviation of the averaged measurements. Whole data set: some 33,000 sequences, median “E-score (dimensionless, -0.5 to 0.5)” near -0.049, cut for the highest 2% near 0.37. The list shows a part of the results.
# Tested on: T1, PmTbr T-box DNA-binding domain (GST fusion)
# T1 sequence: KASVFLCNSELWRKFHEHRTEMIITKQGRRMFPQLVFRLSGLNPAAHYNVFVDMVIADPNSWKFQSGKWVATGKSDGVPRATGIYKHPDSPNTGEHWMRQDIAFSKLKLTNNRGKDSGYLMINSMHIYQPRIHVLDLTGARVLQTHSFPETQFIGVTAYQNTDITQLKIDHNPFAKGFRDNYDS
# Experiment: PBM E-score of 8-mer (E-score (dimensionless, -0.5 to 0.5)); Tbr is Tbrain of the sea star Patiria miniata (Pm) or the sea urchin Strongylocentrotus purpuratus (Sp); higher = stronger binding preference; most listed sequences are background and not binding sites
# Settings: the construct has about 5 more residues each side
# Protocol: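 Universal protein-binding microarray (Agilent AMADID 016060, 60-bp probes with a 35-bp variable region) incubated with 200 nM GST-fused Patiria miniata Tbr T-box DNA-binding domain (residues 272-466) in PBS pH 7.5. Scored for every ungapped 8-mer (given with its reverse complement) by the Universal PBM Analysis Suite as E-score (modified Wilcoxon-Mann-Whitney enrichment, range -0.5 to 0.5; >0.45 counts as bound) and Z-score of median probe intensity. Two replicate arrays (datasets 1 and 2).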
# 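Also: 200 nM protein in PBS on universal arrays averaged over duplicate arrays.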
row,Sequence,PBM E-score of 8-mer
1,CACGTGCC,0.281 ± 0.026
2,AGTTAGAG,-0.203 ± 0.011
3,CTGTTTCC,-0.0891 ± 0.035
4,AGAATTGA,0.0476 ± 0.053
5,GTTAGTGA,0.182 ± 0.0042
6,ACGTGTGC,0.174 ± 0.035
7,AAAGTCGG,-0.156 ± 0.066
8,AGCAGTGG,-0.138 ± 0.0063
9,AGGTCTGA,-0.24 ± 0.038
10,TTATCCAA,0.0266 ± 0.0076
11,GACGGAAC,-0.117 ± 0.06
12,AACGCCGA,-0.0727 ± 0.06
13,CTGCGACC,0.146 ± 0.0092
14,AGCGGAAC,-0.0952 ± 0.07
15,ATAGCGGA,0.0349 ± 0.027
16,GGACAATA,-0.226 ± 0.033
17,CTAGCTTA,-0.0597 ± 0.019
18,GACAGCGC,0.0941 ± 0.072
19,ACTCGAGG,0.03 ± 0.075
20,AGAAAAAT,-0.0785 ± 0.11
21,CCTTGCCG,-0.0437 ± 0.064
22,CTTTCATC,-0.0647 ± 0.1
23,TCATACGA,-0.0175 ± 0.029
24,CGCGGCCC,-0.142 ± 0.063
25,GAGCTGAC,0.132 ± 0.004

row,Sequence,PBM E-score of 8-mer
1,CTTTAGCA,0.266 ± 0.061
2,CGGAAGAC,0.0312 ± 0.0091
3,ACATGTGG,0.0299 ± 0.045
4,AAGTTGGA,-0.0116 ± 0.045
5,GCCTTAAA,-0.218 ± 0.088
6,CATCAGAC,-0.156 ± 0.024
7,CACTATTA,0.168 ± 0.032
8,ACGCCCAT,0.025 ± 0.014
9,CGTTAGGA,-0.0458 ± 0.015
10,CGGTTTAA,-0.116 ± 0.04
11,CCATGAGG,-0.168 ± 0.03
12,GCAGAAAA,-0.0494 ± 0.066
13,ACCCATGG,-0.144 ± 0.079
14,CGATATTA,0.00496 ± 0.033
15,ATTACTGC,-0.00494 ± 0.021
16,AGCTCCCA,-0.308 ± 0.076
17,GTAGAGAA,-0.0935 ± 0.066
18,CCAGAATA,-0.00252 ± 0.053
19,AAAAACTC,-0.0683 ± 0.087
20,AACATCTA,-0.121 ± 0.0062
21,CCAACTAA,0.0318 ± 0.012
22,ACCGTGCA,-0.137 ± 0.0068
23,CACGGTCC,-0.0453 ± 0.0074
24,CCACTTCA,0.13 ± 0.034
25,CAGATTCA,-0.234 ± 0.082

row,Sequence,PBM E-score of 8-mer
1,ACCCTTCC,-0.135 ± 0.079
2,GTGGTAAA,0.227 ± 0.041
3,GATTCTGC,-0.138 ± 0.023
4,ACTTCGGC,0.095 ± 0.0012
5,GCGATCGA,-0.0723 ± 0.0095
6,ATCAAACG,-0.135 ± 0.021
7,ATCCCGAT,-0.139 ± 0.05
8,GCTAATTA,0.166 ± 0.088
9,ATTGAAAA,-0.184 ± 0.035
10,GAGTTTGC,-0.0513 ± 0.056
11,CTAAGCTC,-0.141 ± 0.061
12,ATGGTGCG,0.187 ± 0.036
13,ACGGCCCT,-0.141 ± 0.027
14,CACTTAAG,0.255 ± 0.012
15,GCCCATGA,-0.12 ± 0.034
16,GCACGCCC,0.0828 ± 0.071
17,AATCATGT,-0.202 ± 0.041
18,GGTCCTCA,-0.0641 ± 0.0052
19,ACATAACA,0.232 ± 0.0052
20,AGGTGACA,0.4826 ± 0.00079
21,AATGGCAG,-0.05083 ± 0.0002
22,AGTCACCA,0.0611 ± 0.064
23,ATATTTGA,-0.129 ± 0.038
24,ATGCCTTA,-0.312 ± 0.037
25,CCCGTCTA,-0.121 ± 0.043

row,Sequence,PBM E-score of 8-mer
1,CGATTAAC,0.0479 ± 0.014
2,CATTACCG,-0.0229 ± 0.033
3,GAGGGGAC,-0.243 ± 0.049
4,ACAGACCG,-0.101 ± 0.051
5,ACACATCA,0.299 ± 0.017
6,ACTGTCTC,-0.0454 ± 0.11
7,TCTGGACA,-0.2 ± 0.021
8,ATTGTGCG,0.163 ± 0.019
9,ACAGAGCG,-0.0671 ± 0.04
10,ACTTAAGT,-0.0522 ± 0.021
11,AGGATTCG,-0.143 ± 0.095
12,AGCTTCGA,-0.105 ± 0.042
13,CATGAGTA,0.0426 ± 0.016
14,ATCACAGC,0.211 ± 0.024
15,AATGGGCC,-0.107 ± 0.042
16,CTGTCATA,0.151 ± 0.011
17,ACCGGTCG,-0.0124 ± 0.054
18,CCCATCAC,0.265 ± 0.0027
19,CGAGAAGC,-0.0676 ± 0.057
20,CCCTGATC,-0.11 ± 0.033
21,ACAGAACA,-0.118 ± 0.092
22,ACTCCGCA,0.0199 ± 0.0014
23,CCTGCTAC,0.133 ± 0.02
24,TAGGCGCA,0.0881 ± 0.02
25,CCATGGCA,0.0934 ± 0.1

row,Sequence,PBM E-score of 8-mer
1,CACAATCG,0.0995 ± 0.018
2,GCGGAGTA,-0.125 ± 0.0083
3,ACCCGGGA,0.0134 ± 0.038
4,GAAACAGC,-0.0449 ± 0.074
5,CCGCTAAC,0.169 ± 0.038
6,AGGTTACT,-0.15 ± 0.0084
7,CAATATCA,0.144 ± 0.04
8,GTCAGAAC,-0.103 ± 0.029
9,CAGCGGAA,-0.153 ± 0.011
10,GGAGTTAC,-0.0306 ± 0.046
11,GACGATTA,0.025 ± 0.011
12,CCGACCCG,-0.132 ± 0.035
13,GAAGACGC,0.0456 ± 0.057
14,CACCCCGG,0.334 ± 0.024
15,AATCACAC,0.462 ± 0.0075
16,GCTAAATA,0.209 ± 0.042
17,CTATCTTA,-0.149 ± 0.0076
18,CAAATGTA,-0.183 ± 0.063
19,CCGGGTGC,0.252 ± 0.017
20,CTCAACAG,0.00592 ± 0.036
21,ACCCCAGT,-0.138 ± 0.1
22,AGATGATG,-0.174 ± 0.0057
23,CAGGAAGG,-0.0473 ± 0.0084
24,CTTCCATA,-0.193 ± 0.024
25,CAGGTAGA,0.0483 ± 0.012

row,Sequence,PBM E-score of 8-mer
1,GTCGTTTA,-0.0502 ± 0.058
2,GGGGGGCA,-0.327 ± 0.0093
3,GGCCGTTA,-0.189 ± 0.0025
4,GGCTAGCC,-0.112 ± 0.018
5,AGTTAACG,0.0806 ± 0.066
6,ACGGGCTG,0.00145 ± 0.042
7,TGACCCCA,-0.119 ± 0.087
8,CAGTCTAA,-0.218 ± 0.021
9,TCGGTAGA,-0.0848 ± 0.035
10,AAAATCTT,-0.287 ± 0.032
11,AGAGGGAG,-0.101 ± 0.017
12,CTTAGACC,0.0398 ± 0.062
13,ACCGGCAC,0.159 ± 0.03
14,ACAGTGAG,0.155 ± 0.059
15,AATTACCT,0.0296 ± 0.054
16,CTTAGCTC,-0.162 ± 0.0032
17,GGGCATTA,-0.101 ± 0.025
18,CCTTCCAC,0.0992 ± 0.017
19,GCTCACTA,0.0272 ± 0.021
20,ACTTGTAC,-0.105 ± 0.037
21,CCTCTTCC,-0.253 ± 0.0039
22,ATGGTAGC,-0.00664 ± 0.012
23,GACGAACC,-0.183 ± 0.04
24,TACCCTCA,-0.0966 ± 0.0095
25,GCCCAGTA,-0.226 ± 0.038

row,Sequence,PBM E-score of 8-mer
1,AGGGGCTC,-0.163 ± 0.019
2,CCAGCGCA,-0.0605 ± 0.081
3,AAGGTACC,0.0276 ± 0.049
4,GTTACAAA,0.034 ± 0.079
5,CGCGGTTC,0.206 ± 0.0036
6,TAAGCGTA,-0.0955 ± 0.03
7,AGGAGGCG,0.3007 ± 0.00038
8,GAGGCACA,0.0374 ± 0.011
9,AGCCTGCA,-0.301 ± 0.0032
10,CTATATAG,0.149 ± 0.09
11,ATTGCCGA,0.0547 ± 0.071
12,AGAATGGA,-0.187 ± 0.03
13,CTTCCCCA,0.0352 ± 0.068
14,CCAATTTA,-0.104 ± 0.11
15,AACGCCTC,0.362 ± 0.007
16,CCAGTAAC,-0.0658 ± 0.066
17,CTAAAGTA,-0.0432 ± 0.053
18,GGTGTACA,0.0134 ± 0.02
19,ACCCGTAG,-0.0582 ± 0.021
20,ACAACCTC,0.157 ± 0.027
21,CGCTTATC,0.0947 ± 0.018
22,CAGGGGCG,0.179 ± 0.035
